# Measured values as given in patent US6019970A, “Treatment of iodine deficiency diseases” (priority 1997, dated 2000).
# Assays:
# fibrocystic disease [1] = system: fibrocystic disease
# [2] = system: breast tissue from a female rat on an iodine deficient diet; experiment: Iodine replacement therapy in iodine deficient rats, morphology of breast tissue; type: in vivo
# Excerpt: Studies on rats have included iodine replacement therapy in animals made iodine deficient by a Remington iodine-free diet.
# The first iodine product used in the reversal experiment was sodium iodide.
# FIG. 1 is a photomicrograph of the breast tissue of a human.
# Biological Trace Element Research, Volume 5, 1983, 399-412. The material disclosed in these articles is incorporated herein by reference.
# This deficiency can be obtained either through the use of an iodine deficient diet and/or through perchlorate treatment.
# premenstrual syndrome = experiment: Example 7: Treatment of premenstrual syndrome with iodine; type: in vivo, human (women)
# Experimental: Diatomic iodine has been used for the treatment of fibrocystic disease (see Example 1, above). […] These women varied in age from 30 years to 45 years, with an average of 38 years. The dose of elemental iodine employed was from about 0.07 mg. to about 0.09 mg. per kilogram body weight per day.
# In a retrospective review, the presence of their synarome was confirmed by their family doctor, and all reported failure of control of the premenstrual syndrome with various medications. All these patients met the research diagnostic criteria for premenstrual syndrome as defined by Steiner, Haskett and Carroll. Five were classified as moderate, and five as severe.
# fibrocystic disease [3] = experiment: Complications and side effects of iodine replacement therapy; type: in vivo, human (women); conditions: during treatment cycle
# Excerpt: These include acne, nausea, diarrhea, hair thinning, hyper- and hypothyroidism, skin rash and iodism. […] This pain occurred three to six weeks into the treatment regime and lasted from one to three weeks. The manifestation of pain seemed to coincide with a decrease in breast size and a sudden softening of the fibrosis.
# [4] = system: breast neoplasia in severely iodine deficient Sprague-Dawley rats; experiment: Example 3: Spontaneous breast cancers in rats; type: in vivo; conditions: 0.5 mg per 100 gm body weight, orally; iodine deficient diet and perchlorate
# Excerpt: Since several different iodide modalities were used for evaluation without success, a preliminary study using iodine (diatomic, elemental) was begun by the inventors. This study employed Sprague-Dawley rats under severely iodine deficient conditions. The latter was obtained by using both dietary and perchlorate treatment together. While most of the histopathology obtained in the control rat group was noted to have only severe breast dysplasia, approximately 9% had evidence of neoplasia with cytological aberrations consistent with malignant alterations.
# fibrocystic disease [5] = experiment: Recurrence of symptoms after dose reduction or stopping of iodine replacement therapy; type: in vivo, human; conditions: 10 cases reduced to a twice-weekly dose
# Excerpt: Further, the half life of I2 in the human appears to be eight hours and therefore a daily dose is necessary.
# [6] = Side effects of iodine solution or suspension in patients; type: in vivo, human; conditions: pure elemental iodine solution without particulate iodine
# Excerpt: Elemental iodine in a suspension form (i.e. containing micro and macro particles of iodine) has been used to treat thyroid conditions as taught by Polley in U.S. Pat. No. 4,384,960. However, such a suspension is an undesirable form of iodine. The iodine particles cause the suspension to be of unknown strength. […] The iodine particles are present in the Polley suspension due to the method of manufacture which comprises direct exposure of iodine pellets, crystals or dust to water through a porous container.
# Both of these advantages are attributable to the lack of particulate iodine in the solution.
# mammary gland neoplasia = experiment: Example 5: Prophylactic treatment in rats on low iodine diet/perchlorate; type: in vivo, rat; conditions: simultaneous therapy, as in Example 3
# Excerpt: Evidence for the diatomic iodine replacement thesis was obtained in a prophylactic treatment regime where simultaneous therapy with diatomic iodine as described in Example 3 above, was given to a limited number of prepared rats.
# fibrocystic dysplasia = experiment: Clinical testing of aqueous (elemental) iodine in fibrocystic dysplasia, 142 women
# ovarian cysts = experiment: Example 8: Treatment of ovarian cysts with iodine (patient Number 647); type: in vivo, human
# Excerpt: One patient, Number 647, exemplified four of the possible effective uses of elemental iodine, i.e., for the treatment of fibrocystic breast disease, premenstrual syndrome, endometriosis, and ovarian cysts. In each situation, as previously described, the elemental iodine is acting as an anti-estrogen to normalize the ovarian metabolism and estrogen response.
# A synopsis of the case follows. […] After menarche, the patient had recurrent episodes of right and left lower quadrant abdominal pain. […] They restarted the iodine and within 10 days the abdominal pain had subsided. […] Approximately six months later, this patient was also diagnosed with endometriosis (presence of chocolate cysts) during a laparoscopy examination.
# After a period of no abdominal pain, the patient stopped taking the elemental iodine for a period of approximately 2 years. They then returned to the private clinic, again having abdominal pain, and in addition, breast pain. They were at that time diagnosed as having fibrocystic disease in the upper half of each breast. The elemental iodine was again prescribed for their fibrocystic disease, and to continue to control their endonetriosis disease, which was diagnosed on their initial laparoscopy exam.
# The patient continued on the elemental iodine, but was given an oral contraceptive as well.
# The patient at all times was treated with 10 ml of an aqueous solution elemental iodine, twice daily, corresponding to a dose of approximately 6 milligrams per day.
# [7] = approximately 2 years after re-treatment
structure (smiles),measurement,setting,value
"II [elemental iodine, diatomic iodine]",patients with reduction in breast size,fibrocystic disease [1]; de novo group,76 % of patients
same,complete subjective relief of breast pain and clinical return to normal,"fibrocystic disease [1]; de novo group, 3-6 mg daily, fourth month",72 % of patients
same,retaining a small residual plaque of fibrosis,"fibrocystic disease [1]; de novo group, fourth month",26 % of patients
same,most effective dose to control all symptoms of fibrocystic disease,fibrocystic disease [1]; elemental iodine in aqueous solution,3-6 milligrams per day
same,reduction in breast size,fibrocystic disease [1]; transfer group,as significant as the de novo group
same,loss of residual breast discomfort and complete resolution of fibrosis; return to complete normalcy (class 1),"fibrocystic disease [1]; transfer group, after transfer to elemental iodine, four months evaluation",74 % of patients and 73.7 % of patients
same,patients at the 16-month evaluation (complete normalcy),"fibrocystic disease [1]; transfer group, 16-month evaluation",over 90 % of patients
same,reversal of pathological changes / tissue morphology of rat breast after iodine replacement,[2],"reversal of tissue morphology to near normal with the return of normal adipose tissue components, subsidence of the epithelial hyperplasia and cyst spaces, and most notably, subsidence of the fibrosis"
same,reversal of pathological changes / tissue morphology of rat breast after iodine replacement,[2]; listed as aqueous iodine,"complete reversal of the fibrocystic dysplasia, including the control of fibrosis and thus a return to normal"
same,reversal of pathological changes / tissue morphology of rat breast after iodine replacement,[2]; listed as aqueous or diatomic iodine,the histopathology in the breast becomes normal
same,reversal of pathological changes / tissue morphology of rat breast after iodine replacement,[2]; listed as iodine,reversed breast dysplasia
same,follow up of premenstrual syndrome,premenstrual syndrome; subsequent follow up,continuation of control of the syndrome
same,return of symptoms after stopping,premenstrual syndrome; three patients stopped medication,within one menstrual cycle had a return of symptoms
same,increase of pain,fibrocystic disease [3]; de novo group,18.5%
same,increase of pain,fibrocystic disease [3]; transfer group,1.3%
same,neoplastic changes,[4],no evidence of persisting neoplastic changes in any of the rats
same,recurrence of symptoms,fibrocystic disease [5],within two weeks had a recurrence of symptoms
same,side effects,[6],"reduces the unwanted side effects of nausea, vomiting and diarrhea"
same,neoplasia in mammary glands,mammary gland neoplasia,no neoplasia secondary to this low iodine diet/perchlorate treatment
same,"patients with control of pain, cysts and fibrosis, decrease in breast size","fibrocystic dysplasia; de novo patients, 4 to 16 months",90 % of patients
same,"patients with dramatic reduction in breast size, fibrosis and pain",fibrocystic dysplasia; oral aqueous iodine,90 % of patients
same,abdominal pain,"ovarian cysts; approximately 6 mg per day, approximately 3 months",free of abdominal pain
same,abdomen status,ovarian cysts; [7],asymptomatic in regard to their abdomen
same,breast status,ovarian cysts; [7],their breasts were asymptomatic and normal on examination
same,ovaries on ultrasound,ovarian cysts; approximately 6 months after re-treatment,showed the ovaries to be normal
same,cyst on left ovary (ultrasound),ovarian cysts; approximately 10 months after initial treatment,the cyst on their left ovary had disappeared
same,abdominal pain after restarting,ovarian cysts; restarted,within 10 days the abdominal pain had subsided
same,abdominal pain after stopping,ovarian cysts; stopped for 1 week,"on the eighth day, their abdominal pain returned, severe enough to incapacitate them"
same,recurrence of abdominal pain on stopping iodine,ovarian cysts; with an oral contraceptive,recurrent abdominal pain within three months
same,abdominal pain,"ovarian cysts; with an oral contraceptive, 1 year later",free of abdominal pain

# Where “and” joins values, the source holds several entries; their conditions need not be identical. Equal entries are not always repeated. Where two headings read alike, the source gives them in different places.
